According to PubChem BioAssay AID894 (National Center for Advancing Translational Sciences (NCATS), 2007):
About 6,500 (4.3%) of roughly 150,000 compounds were called active. Inconclusive means that the source gave no clear call. Such entries were picked first, then a sample of the others. Calls come from the whole dose curve; as a rule, active = well fitted inhibition curve with a large enough effect (not every such curve was filed as active); inconclusive = small, poorly fitted or top-dose-only effect, or another doubt; inactive = no such curve, though single readings can be large or run the other way. Potencies of inconclusive entries are left out as doubtful fits.

Target: 15-hydroxyprostaglandin dehydrogenase [NAD(+)] (Homo sapiens) (UniProt P15428)
Chain of UniProt P15428 (P15428 whole entry, looked up): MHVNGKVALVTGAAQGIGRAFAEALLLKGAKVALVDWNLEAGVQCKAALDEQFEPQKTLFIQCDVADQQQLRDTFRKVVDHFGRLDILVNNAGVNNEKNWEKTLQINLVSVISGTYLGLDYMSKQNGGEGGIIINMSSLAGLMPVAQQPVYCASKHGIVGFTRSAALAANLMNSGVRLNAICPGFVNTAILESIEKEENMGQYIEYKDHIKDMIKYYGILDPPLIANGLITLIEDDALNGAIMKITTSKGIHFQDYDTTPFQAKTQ
Assay: qHTS Assay for Inhibitors of HPGD (15-Hydroxyprostaglandin Dehydrogenase)
Conditions: purified HPGD, NADH fluorescence kinetic, PGE2 substrate; activity change, negative = inhibition: stronger effect = lower value
Method in brief: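 20 nM HPGD preincubated 15 min at room temperature with compound in 50 mM Tris-HCl pH 8, 0.01% Tween 20. Started with 1 mM NAD+ and 30 uM prostaglandin E2; NADH fluorescence (360/450 nm) read 5 times over 30-s intervals, last minus first.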
% is set by controls: 0 for no effect and ±100 for the full control effect; potency is the fitted concentration of half-maximal effect; tags give direction and shape of the fitted curve.

| Structure (SMILES) | activity change, negative = inhibition | Potency |
| --- | --- | --- |
| CCCC(C)NC(=O)c1cc(C(=O)OC)cc([N+](=O)[O-])c1 (stereo not drawn) | inactive: -3.91% |  |
| CSc1nc2ccccc2cc1/C=C(\C#N)c1cccc(C)c1 |  | inconclusive [inhibitor, partial curve] |
| CCC(C)(C)n1nnnc1C(C(C)C)N(Cc1ccco1)Cc1cc2cc3c(cc2[nH]c1=O)OCO3 (stereo not drawn) |  | inconclusive [inhibitor, single point] |
| COC(=O)c1coc(-c2ccc(OC)cc2)c1C(=O)OC |  | inconclusive [inhibitor, single point] |
| COc1nc(-c2ccccc2)ccc1-c1noc(-c2ccco2)n1 |  | inconclusive [inhibitor, single point] |
| COC(=O)c1ccc(Oc2ccc(C(C)(C)C)cc2)c([N+](=O)[O-])c1 |  | inconclusive [inhibitor, single point] |
| CCOC(=O)c1c(NC(=O)CSc2nnc(-c3cccnc3)o2)sc(C(C)=O)c1C |  | inconclusive [inhibitor, partial curve] |
| CCN(CC)C(=O)CSc1nc2ccc(NC(=O)CSc3nnc(COc4ccccc4C)n3C)cc2s1 |  | active: 20 µM |
| CC[C@@H](NS(=O)(=O)c1ccc(C)cc1)C(=O)Oc1ccc2c3c(c(=O)oc2c1)CCC3 |  | inconclusive [inhibitor, single point] |
| Cc1ccc(-c2nc(CS(=O)CC(=O)N3CCN(c4ncccn4)CC3)c(C)o2)cc1 (stereo not drawn) |  | inconclusive [inhibitor, single point] |
| CC1CCN(c2nc(-c3ccco3)c3c(c2C#N)CC(C)(C)OC3)CC1 |  | inconclusive [inhibitor, partial curve] |
| Clc1ccc(NCn2cncn2)nc1 |  | inconclusive [inhibitor, partial curve, poor fit] |
| Cc1ccc(C)c(NC(=O)c2ccccc2NS(=O)(=O)c2cc([N+](=O)[O-])ccc2C)c1 | inactive: -3.29% |  |
| Nc1c(C(=O)N/N=C/c2cccnc2)cnn1-c1ccccc1 |  | inconclusive [inhibitor, partial curve] |
| CN(C)CCNC(=O)c1ccc(-n2c(=O)c(=O)[nH]c3ccccc32)cc1 | inactive: -12.5% |  |
| O=C(CCn1cccc1)NCc1ccccc1 |  | inconclusive [inhibitor, partial curve] |
| COc1ccc(C(=O)Nc2nc(C)c3cc4c(cc3n2)OCO4)cc1 |  | inconclusive [inhibitor, single point] |
| Cc1ccccc1-c1nnc(SCc2ccc(F)cc2)o1 |  | inconclusive [inhibitor, single point] |
| CC(=O)N1CCN(C(=O)CCc2nc3ccccc3c(=O)[nH]2)CC1 | inactive: -9.34% |  |
| CC(=O)Nc1ccc(Nc2ncnc3c2cnn3-c2cccc(C)c2)cc1 |  | inconclusive [inhibitor, single point] |
| CCOC(=O)c1cccc(NC(=O)CSc2nc3ccccc3c(=O)n2CC)c1 | inactive: -8.19% |  |
| COc1ccc(S(=O)(=O)N2CCC(c3cc(-c4cccc5ccccc45)n[nH]3)CC2)cc1 |  | inconclusive [inhibitor, partial curve] |
| CCCCn1nc2cc(C(=O)NCc3ccc(OC(F)(F)F)cc3)ccc2c1OC |  | inconclusive [inhibitor, partial curve] |

| Structure (SMILES) | activity change, negative = inhibition | Potency |
| --- | --- | --- |
| COC(=O)Nc1nnc(/C=C/c2ccc(OC)cc2)s1 |  | inconclusive [inhibitor, partial curve] |
| COc1ccc2cc3cc(C(=O)NC(C)C)oc3nc2c1 |  | inconclusive [inhibitor, partial curve] |
| CC1=CC2=NCC(O)CN2C=C1 (stereo not drawn) |  | inconclusive [inhibitor, partial curve] |
| Cc1ccc(S(=O)(=O)c2cc3c(=O)n4cccc(C)c4nc3n(CC3CCCO3)c2=N)cc1 (stereo not drawn) |  | inconclusive [inhibitor, partial curve] |
| Cc1cc(N2CCN(c3ccccc3)CC2)nc(-c2ccccc2O)n1 |  | inconclusive [inhibitor, partial curve] |
| O=C(C(Cc1ccccc1)n1cccc1)N1CCCCC1 (stereo not drawn) |  | active: 12.6 µM |
| CCOC(=O)Cc1nnc(NC(=O)CSc2ccccc2)s1 | inactive: -3.93% |  |
| CC[N+](C)(C)CCN(Cc1ccc(Cl)cc1)c1ccccn1 |  | inconclusive [inhibitor, partial curve] |
| Cc1ccn2cc(-c3cnoc3C)nc2c1 |  | inconclusive [inhibitor, partial curve] |
| COc1ccc(C2C=C(c3ccccc3)Nc3nc(NC(C)=O)nn32)cc1 (stereo not drawn) |  | inconclusive [inhibitor, single point] |
| CCCCN1Cc2cc(C(=O)c3cc(F)ccc3O)cnc2NC1=O |  | inconclusive [inhibitor, partial curve] |
| Cc1nc2ccccn2c1C(=O)N=Nc1c(O)n(CCC(C)C)c2ccccc12 | inactive: -1.35% |  |
| Cc1ccc(CNC(=O)c2cn(C3CCCCC3)c(=O)c3c2c2ccccc2n3C)o1 |  | inconclusive [inhibitor, partial curve] |
| Cc1ccc(CN2C(=O)C3CCCN3c3ccc(C#N)cc32)cc1 (stereo not drawn) |  | inconclusive [inhibitor, partial curve] |
| O=C(NCc1ccco1)c1sc2cc(F)ccc2c1Cl |  | active: 25.1 µM |
| Cc1coc2cc3oc(=O)c4c(c3cc12)CCCC4 |  | inconclusive [inhibitor, partial curve] |
| O=C(NCc1ccc2c(c1)OCO2)c1ccc(C2SCC(=O)N2Cc2ccco2)cc1 (stereo not drawn) |  | inconclusive [inhibitor, partial curve] |
| Cn1c(-c2c(N)n(CCCc3ccccc3)c3nc4ccccc4nc23)nc2ccccc21 |  | inconclusive [inhibitor, partial curve] |
| C=CCn1c(Cc2cccs2)nnc1SC/C=C/c1ccccc1 | inactive: -7.49% |  |
| Cc1[nH]nc2c1C(Cc1ccccc1)C(C#N)=C(N)O2 (stereo not drawn) |  | inconclusive [inhibitor, partial curve, poor fit] |
| CC(=O)C1=C(O)C(=O)N(c2ccc(C(=O)O)cc2)C1c1ccccc1 (stereo not drawn) |  | inconclusive [inhibitor, single point] |
| COc1ccc(C(C)=O)cc1COC(=O)Cc1n[nH]c(=O)c2ccccc12 |  | active: 22.4 µM |
| COc1cccc(CN2C(=O)c3cccc(N)c3C2=O)c1 |  | inconclusive [inhibitor, partial curve] |

| Structure (SMILES) | activity change, negative = inhibition | Potency |
| --- | --- | --- |
| Cc1nc2nc3c(cn2n1)C(=O)CCC3 | inactive: -11.4% |  |
| COc1cc2c(CCNC(C)=O)c[nH]c2cc1O |  | inconclusive [inhibitor, single point] |
| COc1cc(Cl)cc(C#N)c1OCC(=O)O |  | inconclusive [inhibitor, single point] |
| CCCn1c(C)nc2c(NC3CCN(Cc4ccccc4)CC3)nc(C)nc21 | inactive: -8.28% |  |
| O=C(c1cnccn1)N1CCC2(CC1)CN(Cc1ccccc1)C2 | inactive: -6.19% |  |
| CCOc1ccc2[nH]c(=O)c(CN(Cc3ccccc3OC)C(=O)c3ccccc3)cc2c1 | inactive: -16.6% |  |
| CCOC(=O)C1CCN(C(=O)Nc2ccc3nc(C)c(C)nc3c2)CC1 |  | inconclusive [inhibitor, partial curve] |
| CCCn1nc2cc(C(=O)NCc3ccc(OC)cc3)ccc2c1OCC |  | inconclusive [inhibitor, partial curve] |
| CC(C)N=c1scc(-c2cccs2)n1/N=C/c1ccc(O)c(O)c1O |  | inconclusive [inhibitor, partial curve] |
| O=C(c1ccccc1[N+](=O)[O-])N1CCc2ccccc2C1 |  | active: 12.6 µM |
| O=c1oc2ccccc2c2c1SC(C(F)(F)F)C2 (stereo not drawn) |  | inconclusive [inhibitor, partial curve] |
| FC(F)(F)c1cc(-c2ccc(Cl)cc2)nc2ncnn12 |  | inconclusive [inhibitor, partial curve] |
| COc1ccc(O)c(C(=O)c2cnc3nc4ccccc4n3c2)c1 |  | inconclusive [inhibitor, partial curve] |
| Cc1ccc(C(=O)Nc2nnc(-c3ccc(C(C)(C)C)cc3)s2)cc1 |  | inconclusive [inhibitor, full curve, poor fit] |
| Cc1nc(NC(=O)c2ccc(-c3cc4ccccc4oc3=O)cc2)ccc1Br |  | inconclusive [inhibitor, partial curve] |
| CN(C)C(=O)c1ccc(NC(=O)c2ccccc2Sc2ccccc2C#N)cc1 |  | active: 17.8 µM |
| Fc1ccccc1OCCSc1nnnn1-c1ccccc1 |  | active: 15.8 µM |
| COc1ccc(/C=N/n2c(-c3n[nH]c4c3CCC4)n[nH]c2=S)cc1OC |  | inconclusive [inhibitor, partial curve] |
| O=C(COC(=O)Cc1ccccc1F)Nc1cc(S(=O)(=O)N2CCOCC2)ccc1N1CCCC1 |  | inconclusive [inhibitor, partial curve] |
| COc1cc(C)nc(NC(=O)COc2ccc(Cl)cc2C)n1 | inactive: -8.82% |  |
| CCOC(=O)Cc1csc(NC(=S)NC(=O)c2ccccc2Br)n1 |  | inconclusive [inhibitor, partial curve] |
| COc1ccc2c(c1)c1ncn(Cc3ccco3)c(=O)c1n2C |  | inconclusive [inhibitor, partial curve] |
